Data taken from PubChem BioAssay (NCATS).
Where “and” joins values, the source holds several entries; their conditions need not be identical. Equal entries are not always repeated. The inconclusive results got no clear call from the source; some entries with a clear call stand among them for comparison. For part of these data: Potencies beside an inconclusive call are fits to weak or partial responses and may not hold up. For part of these data: “Side channel” marks fits to a control or component signal instead of the main read-out. Calls of active or inactive are those of the source. Unless noted, the call rests on the fitted dose curve.

What was measured:
[1] = target: Glucocorticoid receptor (Homo sapiens) (UniProt P04150); assay: qHTS assay for small molecule antagonists of glucocorticoid receptor signaling (AID 588533; active means well fitted inhibition curve with a large enough effect in the signal ratio, with a control signal flat, not every such curve was filed as active; inconclusive means small, poorly fitted or top-dose-only effect, or effect the other way, or a change in a side signal; the % refers to the signal ratio;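 further: cells stimulated with 2 nM dexamethasone as agonist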; further: potency means the concentration at half of the fitted maximal effect; on activity change, negative = inhibition: on the % scale 0 is the no-effect control and ±100 the full control effect); conditions: HeLa MMTV-bla, GRE beta-lactamase ratio, antagonist mode, 18 h; activity change, negative = inhibition: at 76.8 µM (top of the series)
[2] = target: Peroxisome proliferator-activated receptor gamma (Homo sapiens) (UniProt P37231); assay: qHTS assay for small molecule agonists of peroxisome proliferator-activated receptor gamma signaling (AID 588536; active means well fitted curve in the direction sought with a large enough effect in the signal ratio, with a control signal flat, not every such curve was filed as active; inconclusive means small, poorly fitted or top-dose-only effect, or effect the other way, or a change in a side signal; inactive means no such curve, though single readings can be large or run the other way; the % refers to the signal ratio;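 further: 0% = DMSO basal wells and 100% = rosiglitazone at 2 µM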); conditions: HEK293 PPARg-UAS-bla, beta-lactamase ratio, 16 h; activation: at 76.7 µM (top of the series), percent of rosiglitazone response, DMSO as zero
Method in brief: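 Cells were plated and held 6–6.5 h at 37 C, then compounds were added as a titration series. After a further 16 h, CCF4 dye was loaded for 2 h at room temperature and emission at 460/530 nm recorded.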

[3] = target: Peroxisome proliferator-activated receptor gamma (Homo sapiens) (UniProt P37231); assay: qHTS assay for small molecule antagonists of peroxisome proliferator-activated receptor gamma signaling (AID 588537; active means well fitted inhibition curve with a large enough effect in the signal ratio, with a control signal flat, not every such curve was filed as active; inconclusive means small, poorly fitted or top-dose-only effect, or effect the other way, or a change in a side signal; the % refers to the signal ratio; further: potency means the concentration at half of the fitted maximal effect;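 further: reporter cells co-stimulated with 50 nM rosiglitazone agonist during compound treatment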; on activity, negative = inhibition: % of control where 0% means no effect); conditions: HEK293 PPARg-UAS-bla, beta-lactamase ratio, antagonist mode; activity, negative = inhibition: at 76.8 µM (top of the series)
Method in brief: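 Read-out: CCF4 fluorescence (ex 405, em 460/530 nm) after 2 h at RT. Cells were HEK293 carrying a UAS-bla reporter and treated 16 h at 37 C with compound plus rosiglitazone (50 nM final). Normalized to rosiglitazone and DMSO.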

[4] = target: Retinoic acid receptor RXR-alpha (Homo sapiens) (UniProt P19793); assay: qHTS assay for small molecule agonists of retinoid X receptor alpha signaling (AID 588544); conditions: HEK293T RXRa-UAS-bla, beta-lactamase reporter, 18 h; activation: at 76.7 µM (top of the series); further: potency means the concentration at half of the fitted maximal effect;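 on activation: 0% = DMSO basal wells and 100% = reference agonist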
Sequence of UniProt P19793 (P19793 whole entry, looked up): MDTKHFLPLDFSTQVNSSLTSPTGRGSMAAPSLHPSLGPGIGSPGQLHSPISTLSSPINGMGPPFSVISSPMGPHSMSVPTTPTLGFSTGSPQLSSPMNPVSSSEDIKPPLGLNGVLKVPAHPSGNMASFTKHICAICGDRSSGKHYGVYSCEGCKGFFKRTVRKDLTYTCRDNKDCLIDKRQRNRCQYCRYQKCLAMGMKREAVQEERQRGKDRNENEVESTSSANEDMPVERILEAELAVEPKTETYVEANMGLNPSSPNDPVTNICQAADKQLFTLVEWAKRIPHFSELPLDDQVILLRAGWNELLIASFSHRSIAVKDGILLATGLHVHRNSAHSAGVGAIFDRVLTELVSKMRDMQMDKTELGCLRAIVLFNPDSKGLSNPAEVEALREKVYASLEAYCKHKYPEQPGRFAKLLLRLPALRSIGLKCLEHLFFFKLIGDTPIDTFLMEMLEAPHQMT

[5] = target: Thyroid hormone receptor beta (Homo sapiens) (UniProt P10828); assay: qHTS assay for small molecule agonists of thyroid hormone receptor beta signaling (AID 588545); conditions: TR-UAS-bla GripTite HEK 293, beta-lactamase ratio, agonist mode, 18 h; activation: at 76.7 µM, percent of T3 response, DMSO as zero;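 further: 0% = DMSO only and 100% = 10 nM T3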
Sequence of UniProt P10828 (P10828 whole entry, looked up): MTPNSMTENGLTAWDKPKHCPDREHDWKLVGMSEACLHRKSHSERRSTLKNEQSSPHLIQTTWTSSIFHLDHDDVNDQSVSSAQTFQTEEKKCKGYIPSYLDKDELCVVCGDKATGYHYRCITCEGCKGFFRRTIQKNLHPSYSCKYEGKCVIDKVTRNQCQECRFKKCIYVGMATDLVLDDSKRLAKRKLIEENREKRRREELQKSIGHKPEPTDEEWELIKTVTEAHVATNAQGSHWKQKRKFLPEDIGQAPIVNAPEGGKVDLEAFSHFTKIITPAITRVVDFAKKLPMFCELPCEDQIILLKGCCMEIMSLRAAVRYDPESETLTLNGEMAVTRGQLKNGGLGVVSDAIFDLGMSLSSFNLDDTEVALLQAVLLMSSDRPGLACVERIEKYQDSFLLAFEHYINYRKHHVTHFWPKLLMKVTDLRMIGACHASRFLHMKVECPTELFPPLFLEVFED
Method in brief: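 Beta-lactamase reporter activity under TR response element control is measured in HEK 293 cells after 18 hrs compound exposure. Signal is ratiometric CCF4 fluorescence, 460/530 nm.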

[6] = qHTS assay for small molecule agonists of the antioxidant response element (ARE) signaling pathway (AID 651741; active means well fitted activation curve with a large enough effect in the signal ratio; inconclusive means small, poorly fitted or top-dose-only effect, or effect the other way, or a change in a side signal; the % refers to the signal ratio; further: potency means the concentration at half of the fitted maximal effect; on activation: % of control where 0% means no effect); conditions: HepG2 ARE-bla reporter, beta-lactamase FRET ratio, 16 h; activation: at 96 µM (top of the series)
Method in brief: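 HepG2 ARE-bla reporter cells, 2,000/well; 5 h settle at 37 C/5% CO2; compound pin transfer (23 nL, DMSO); 16 h at 37 C; LiveBLAzer B/G FRET substrate, 2 h RT; fluorescence intensity read.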

[7] = qHTS assay to identify small molecules that stimulate interleukin-8 (IL-8) secretion (AID 651758; active means well fitted activation curve with a large enough effect in the signal ratio; inconclusive means small, poorly fitted or top-dose-only effect, or effect the other way, or a change in a side signal; the % refers to the signal ratio; further: potency means the concentration at half of the fitted maximal effect; on activation: 0% is about no effect); conditions: HTRF ratio (665/615); activation: at 92.2 µM (top of the series)
Method in brief: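 Compounds are added to THP-1 cells (2000 per well) and left 16 hrs at 37 C. A labeled anti-IL-8 antibody pair is then added, and IL-8 secretion is measured by time-resolved FRET after 1-3 hrs at room temperature.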

[8] = Cell Viability - H-4-II-E (AID 543; active means well fitted curve in the direction sought with a large enough effect; inconclusive means small, poorly fitted or top-dose-only effect, or another doubt; inactive means no such curve, though single readings can be large; an effect the other way counts as inactive or inconclusive;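 further: potency means the concentration at half of the fitted maximal effect; cells exposed to compound for 40 hours; nearly all actives have a fitted effect of over 35% in size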); conditions: H-4-II-E rat hepatoma viability; series mostly up to 92.2 µM
Method in brief: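 qHTS, rat hepatoma H-4-II-E, 1500 cells/well; 40 hr compound exposure, 37 °C; CellTiter-Glo ATP luminescence after 20 min RT; AC50 by standard Hill fit.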

[9] = MultiTox-Fluor Cytotoxicity Assay - LYMP1-002 - Dead Cells (AID 960; active means well fitted curve in the direction sought with a large enough effect; inconclusive means small, poorly fitted or top-dose-only effect, or another doubt; inactive means no such curve, though single readings can be large; an effect the other way counts as inactive or inconclusive; further: potency means the concentration at half of the fitted maximal effect; nearly all actives have a fitted effect of over 60% in size); conditions: LYMP1-002 lymphoblastoid cells, dead-cell protease fluorescence; cytotoxicity (dead cells): at 46.1 µM (top of the series)
Method in brief: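 Readout: fluorescence at 485/520 from cell-impermeant bis-AAF-R110 cleaved by proteases leaking from damaged cells. LYMP1-002 lymphoblastoid line, 16 hr compound treatment at 37 C, concentration-response in qHTS format; Hill-equation AC50 values.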

[10] = target: Estrogen receptor (Homo sapiens) (UniProt P03372); assay: qHTS assay for small molecule agonists of estrogen receptor alpha signaling (AID 588514); conditions: ER-alpha-UAS-bla HEK293, beta-lactamase ratio, 18 h; activation: at 76.8 µM (top of the series), percent of full estradiol response, vehicle zero unless noted; further: potency means the concentration at half of the fitted maximal effect; nearly all actives have a fitted effect of over 70% in size
Sequence of UniProt P03372 (P03372 whole entry, looked up): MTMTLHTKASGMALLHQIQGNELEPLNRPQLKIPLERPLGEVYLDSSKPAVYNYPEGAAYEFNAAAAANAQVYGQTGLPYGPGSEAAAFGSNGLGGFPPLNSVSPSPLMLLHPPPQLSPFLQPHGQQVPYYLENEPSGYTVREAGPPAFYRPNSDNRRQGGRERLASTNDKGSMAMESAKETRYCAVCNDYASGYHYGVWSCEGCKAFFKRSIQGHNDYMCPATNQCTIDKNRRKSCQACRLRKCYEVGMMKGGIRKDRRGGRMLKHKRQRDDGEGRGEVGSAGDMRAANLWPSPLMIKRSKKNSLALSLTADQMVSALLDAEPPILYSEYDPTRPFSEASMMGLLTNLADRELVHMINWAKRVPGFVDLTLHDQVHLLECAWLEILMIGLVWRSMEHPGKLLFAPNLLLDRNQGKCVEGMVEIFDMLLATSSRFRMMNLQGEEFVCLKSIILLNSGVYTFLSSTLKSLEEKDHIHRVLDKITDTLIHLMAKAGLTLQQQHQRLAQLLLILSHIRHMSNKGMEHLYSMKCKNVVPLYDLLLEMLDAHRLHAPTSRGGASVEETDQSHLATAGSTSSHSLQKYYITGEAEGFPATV
Method in brief: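 Read-out: CCF4 fluorescence from a beta-lactamase reporter in ER-alpha-UAS-bla HEK 293 cells after 18 hrs of compound exposure at 37 C. Normalized to 20 nM 17-beta-estradiol (100%) and DMSO (0%).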

[11] = qHTS assay for small molecule agonists of the antioxidant response element (ARE) signaling pathway measured by Nrf2-dependant transcriptional activity (AID 720636; active means well fitted curve in the direction sought with a large enough effect in the repeat runs; inconclusive means weak or mixed curves; inactive means no such curve, though single readings can be large; an effect the other way counts as inactive or inconclusive; further: potency means the concentration at half of the fitted maximal effect); conditions: ARE-luc HepG2, Nrf2 luciferase reporter, 16 h; series mostly up to 92.4 µM
Method in brief: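 We exposed ARE-luc HepG2 cells, seeded in assay medium with 1% dialyzed FBS and allowed 6 hr to adhere, to test compounds overnight (16 hr, 37 C) before measuring luciferase with ONE-Glo.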

[12] = qHTS assay for small molecule antagonists of the retinoid-related orphan receptor gamma (ROR-gamma) signaling pathway - cell viability counter screen (AID 720652; active means well fitted curve in the direction sought with a large enough effect in the repeat runs; inconclusive means weak or mixed curves; inactive means no such curve, though single readings can be large; an effect the other way counts as inactive or inconclusive;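 further: potency means the concentration at half of the fitted maximal effect; compound exposure lasted 16 hr before ATP read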); conditions: RORgamma reporter cell line viability counter screen; series mostly up to 92.2 µM
Method in brief: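 CHO RORE-LUC/TET-ROR line, 1,000 cells/well, 37 C 5% CO2 5 hr; cpd or DMSO + doxycycline induction, 16 hr. CellTiter-Glo, 30 min RT, luminescence = ATP content.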

[13] = target: Peroxisome proliferator-activated receptor delta (Homo sapiens) (UniProt Q03181); assay: qHTS assay for small molecule antagonists of peroxisome proliferator-activated receptor delta signaling (AID 588535; active means well fitted inhibition curve with a large enough effect in the signal ratio, with a control signal flat, not every such curve was filed as active; inconclusive means small, poorly fitted or top-dose-only effect, or effect the other way, or a change in a side signal; inactive means no such curve, though single readings can be large or run the other way; the % refers to the signal ratio); conditions: HEK293T PPARd-UAS-bla, beta-lactamase FRET ratio, 18 h; activity change, negative = inhibition: at 76.7 µM (top of the series)
Sequence of UniProt Q03181 (Q03181 whole entry, looked up): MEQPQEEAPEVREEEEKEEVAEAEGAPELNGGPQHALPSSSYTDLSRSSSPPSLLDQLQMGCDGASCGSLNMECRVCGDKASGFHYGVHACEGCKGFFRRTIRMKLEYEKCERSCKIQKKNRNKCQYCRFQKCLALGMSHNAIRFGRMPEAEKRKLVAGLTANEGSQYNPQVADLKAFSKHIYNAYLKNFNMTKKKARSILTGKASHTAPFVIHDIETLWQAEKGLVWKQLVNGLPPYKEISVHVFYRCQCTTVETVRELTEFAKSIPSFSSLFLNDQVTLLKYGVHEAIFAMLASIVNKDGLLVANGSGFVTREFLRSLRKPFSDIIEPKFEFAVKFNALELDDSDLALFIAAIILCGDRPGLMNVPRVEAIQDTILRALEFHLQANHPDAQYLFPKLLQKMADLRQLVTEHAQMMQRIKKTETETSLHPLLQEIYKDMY
Method in brief: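 Beta-lactamase reporter read-out (405 nm excitation, 460/530 nm emission) after CCF4 loading for 2 hrs at RT. HEK293T PPAR-delta-UAS-bla cells, 2% charcoal/dextran FBS, compounds for 18 hrs at 37 C. Hill fit gave IC50 and efficacy.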

[14] = Cell Viability - LYMP2-005 (AID 967; active means well fitted curve in the direction sought with a large enough effect; inconclusive means small, poorly fitted or top-dose-only effect, or another doubt; inactive means no such curve, though single readings can be large; an effect the other way counts as inactive or inconclusive; further: potency means the concentration at half of the fitted maximal effect); conditions: LYMP2-005 lymphoblastoid cell viability; series mostly up to 92.2 µM
Method in brief: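 CellTiter-Glo luminescence (cellular ATP) read-out; LYMP2-005 lymphoblastoid cells, 2500/well, 5 h pre-incubation, then 24 h compound exposure at 37 C in complete medium. Tetraoctylammonium bromide positive control; AC50 by standard Hill fit.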
Tags describe the fitted curve by direction and shape or compound fluorescence and quenching.

## CC(C)(COCC1CO1)COCC1CO1 (stereo not given)
[1]
  Potency: inactive
[2]
  Potency: inactive
[3]
  activity, negative = inhibition: inconclusive: 6.47%
[4]
  Potency: inconclusive: 44.7 µM [side channel, rising, partial curve, poor fit]
[5]
  activation: inconclusive: -12.4%
[6]
  Potency: inconclusive: 75 µM [activator, single point]
[7]
  Potency: inactive

## Nc1ccc(-c2ccc(N)c(Cl)c2)cc1Cl
[8]
  Potency: active: 31.6 µM
[9]
  Potency: active: 25.1 µM
[10]
  Potency: inconclusive: 12.6 µM [activator, full curve] and inconclusive: 31.6 µM [activator, partial curve]
[1]
  Potency: inconclusive: 15.8 µM [inhibitor, partial curve, poor fit] and inconclusive: 17.8 µM [inhibitor, full curve]
[2]
  activation: inconclusive: -9.58%
[3]
  Potency: inconclusive: 39.8 µM [inhibitor, partial curve] and inactive
[4]
  Potency: inconclusive: 11.2 µM [inhibitor, full curve]
  activation: inconclusive: -38%
[7]
  Potency: inconclusive: 75 µM [rising, single point]
[11]
  Potency: inconclusive: 2.66 µM [activator, full curve, poor fit] and inconclusive: 7.7 µM [activator, full curve, poor fit]
[12]
  Potency: inconclusive: 47.3 µM [cytotoxic, partial curve]

## CCCCOC(C)=O
[13]
  Potency: inactive
[6]
  Potency: inactive
[7]
  activation: inconclusive: -21.4%

## O=[N+]([O-])C(Br)Br
[14]
  Potency: active: 25.1 µM
[1]
  Potency: inconclusive: 25.1 µM [inhibitor, full curve, poor fit]
[3]
  Potency: inactive
[4]
  Potency: inactive
[5]
  activation: inactive: 2.96%
[6]
  Potency: active: 47.3 µM
[7]
  Potency: inconclusive: 75 µM [falling, partial curve, poor fit]
[11]
  Potency: inconclusive: 106 µM [activator, partial curve, poor fit]
[12]
  Potency: active: 18.8 µM
